Measured values as given in the RNAGym collection of RNA variant scans (doi:10.7554/elife.90254).
The source gives no read counts; variants with many changes may rest on few reads.

B1: LINE1-mini (parent)
chain: GGCAGAGCUCAACACAGCGUGGCAAAGUGGCUGUGGCUAGACUGCC

Variants of: B1
Assay: self-cleavage, relative activity (ratio to wild type); higher = more cleavage; in vitro, sequencing; the parent is a self-cleaving ribozyme

| Variant | self-cleavage |
| --- | --- |
| G1U C8A C31U G44U | 0.02 |
| G1U A6C A16C | 0.06 |
| G1U C3U C10A C18U A24U G36U | 0.01 |
| G1U C13U G17U C23G G44A | 0.02 |
| G1U C3U A4U U34C | 0.02 |
| G1U C8A U9C U34G | 0.01 |
| G1U C8G G19A | 0.12 |
| G1U C8A A26U C37U A41C | 0.08 |
| G1U A24U U34G | 0.14 |
| G1U C10U G22A | 0 |
| G1U C10A C37U G40U | 0 |
| G1U A6G C23A G44C | 0.06 |
| G1U C23G U32A | 0.03 |
| G1U C3A A12U | 0.14 |
| G1U A24G A39C | 0.07 |
| G1U C13U U43G | 0.1 |
| G1U C3A C15A G27C G35C | 0.28 |
| G1U A11G G30U | 0 |
| G1U A16G G35U | 0 |
| G1U C8A G33U | 0.06 |
| G1U C3G U20G | 0.19 |
| G1U A11G C42U | 0.04 |
| G1U C8G A14C G19U U28A | 0 |
| G1U C8G A12U G40U | 0.02 |

| Variant | self-cleavage |
| --- | --- |
| G1U C13G A14G | 0.1 |
| G1U A25C U38C | 0.16 |
| G1U A16U G35U | 0.02 |
| G1U A26U C45G | 0.1 |
| G1U C3G G21U G33A C37G A39U C42U | 0.01 |
| G1U C23U G29C A41C C46A | 0.02 |
| G1U G2A A16C G17U U32A | 0.01 |
| G1U A16U G36U | 0.05 |
| G1U A14C U38G G40U | 0.01 |
| G1U C8U U9A A11U A16U G33A G36U | 0 |
| G1U A11U U38G A41C | 0.01 |
| G1U A12U G35C U43C G44A | 0.01 |
| G1U C3G A26C G36U | 0.34 |
| G1U A11U C37U | 0.02 |
| G1U C23G C45A | 0.15 |
| G1U C13U G27U | 0.06 |
| G1U C3A G17U | 0.49 |
| G1U A12U A16U G40A U43G | 0.06 |
| G1U G2C G27C C42G | 0 |
| G1U A12U U20C | 0.06 |
| G1U A24G G29C G36A | 0.04 |
| G1U C8G C45A | 0.02 |
| G1U A11G C13A C18A G22C C37A A39C G44A | 0 |
| G1U A26U U32C C45U | 0.03 |

| Variant | self-cleavage |
| --- | --- |
| G1U A6C C8A A11U G27U C31A | 0.02 |
| G1U C10U C31G C37A | 0.01 |
| G1U A12G C13A U20A C23U | 0.04 |
| G1U A14C G29U | 0.03 |
| G1U A24U A39U A41U | 0.14 |
| G1U C8A G40U | 0.05 |
| G1U C23U A24U | 0.15 |
| G1U C8A C13U G30A | 0.27 |
| G1U C3G C8U C10U A24U C37A A39U | 0.1 |
| G1U G2C A4C C10A | 0.02 |
| G1U C10A G35C | 0 |
| G1U C37U A39C | 0.04 |
| G1U C8G G29U | 0.02 |
| G1U A26C G27U | 0.31 |
| G1U A25C G29U U32A | 0.02 |
| G1U A6C A26G | 0.36 |
| G1U C10A C23U G29C | 0.02 |
| G1U A6U C8G G19U G21U U28G | 0.04 |
| G1U G2C G5U A6C C13G | 0.02 |
| G1U C18G G22U A26C C37U | 0.01 |
| G1U A39U C45U | 0.1 |
| G1U C15U G29A U34C | 0.06 |
| G1U A41G C46G | 0.13 |
| G1U C3A G5C U20A C37A | 0.14 |

| Variant | self-cleavage |
| --- | --- |
| G1U A4U G5A A6G C13G G40A | 0.03 |
| G1U C13U U38A | 0.05 |
| G1U C8U G19U G29U U34C | 0.03 |
| G1U A14G U32G G40U C42G | 0.09 |
| G1U C3A C23U G35U C42A C45G | 0.65 |
| G1U C10A A12C C42U | 0.01 |
| G1U C18U C23A | 1.65 |
| G1U A12U C13U G35U | 0.03 |
| G1U C3A C10A A26C C37G | 0.03 |
| G1U C13A A26G G30A U34C C42U | 0.02 |
| G1U C31G G33A | 0.06 |
| G1U C13G G19U G36U G44U | 0.04 |
| G1U C13U C15U G36A | 0.1 |
| G1U C10G C15G G17U | 0.01 |
| G1U G2C G7C A12U G40A | 0.08 |
| G1U C10G G30A C42G | 0.01 |
| G1U C3G C8G G29C U32A C45G | 0.03 |
| G1U G2A G7A G29C | 0.11 |
| G1U A6G C45A | 0.04 |
| G1U A4U A11C G21U C31G G35A U38C | 0 |
| G1U A26C G33U A41U | 0.04 |
| G1U G2A C3G | 0.18 |
| G1U A6C G33A A41G | 0.08 |
| G1U A6G C15U G19C G33C C46U | 0.02 |

| Variant | self-cleavage |
| --- | --- |
| G1U A6U C23U C42U | 0.03 |
| G1U A6G A12G C37U | 0.01 |
| G1U A6G C23A | 0.16 |
| G1U C31U A39G | 0.04 |
| G1U C8G G22C G35U C46A | 0.02 |
| G1U C13U G30U U43G | 0 |
| G1U A16C C37A | 0.09 |
| G1U A14G C18G A26U | 0.03 |
| G1U C23G G44A | 0.17 |
| G1U A26G U32A C37G | 0.05 |
| G1U C3G C15A | 0.27 |
| G1U A6U C8A U20A A39G G40A | 0.03 |
| G1U C3G G30U A39C | 0.03 |
| G1U C13A C18U C23G G27A | 0.1 |
| G1U C3G A26U G29U G35C | 0.36 |
| G1U C18U G21C U43A | 0.05 |
| G1U C3A A11C G21C G22C C23A U32G | 0.03 |
| G1U A39U A41G | 0.05 |
| G1U C13U U20A C46U | 0.04 |
| G1U C15U C23A G29A C31A C37U | 0.01 |
| G1U C8A U28A G35U | 0.34 |
| G1U C8A G35U C42A | 0.07 |
| G1U A14U G17A U20C A26U | 0.05 |
| G1U C10U G22U A24U C46U | 0.11 |

| Variant | self-cleavage |
| --- | --- |
| G1U C18A G29U U34G C46U | 0.03 |
| G1U C13U C23U A25U G27U | 0.04 |
| G1U A4U A6G A16G G21A | 0.04 |
| G1U C10G A14U C23G G30C U43G | 0 |
| G1U C8A C18U | 0.41 |
| G1U A11C A12G | 0.01 |
| G1U C31G U38G G44C | 0.01 |
| G1U C8A C10A U38G G44A | 0 |
| G1U A6U C18U U32G A41U | 0.02 |
| G1U C3G U9G C23A C45A | 0.07 |
| G1U C13G U20G G36A | 0.02 |
| G1U C8A U20C G30U C31U | 0.03 |
| G1U A25C G27A | 0.29 |
| G1U A6G A16C | 0 |
| G1U C3G C10A G29U G30C C31U G40A A41U C45U | 0.01 |
| G1U A16G G29C C46A | 1.25 |
| G1U A24C G29C U32C | 0.03 |
| G1U A11C A26C C31G U32G | 0.02 |
| G1U A16G G27U | 0.16 |
| G1U A6G A16U C37G C45U | 0 |
| G1U C13U C46U | 0.11 |
| G1U A12C C13G G33A G40U | 0 |
| G1U G2A G7A | 0.29 |
| G1U C3U G7A C15U U34G | 0.16 |

| Variant | self-cleavage |
| --- | --- |
| G1U C3A U28G C46G | 0.53 |
| G1U C10A G19A C46U | 0.02 |
| G1U C10G G30U U43C | 0.01 |
| G1U C3A C10G C46G | 0.06 |
| G1U A11C C37A | 0.01 |
| G1U A6C G21U G36A | 0.02 |
| G1U A11C G19C C23U G30A G44A | 0.01 |
| G1U C3A C23A C31U U34A G35A | 0.06 |
| G1U A12U C45U | 0.17 |
| G1U G2C C3A A14G A41C | 0.03 |
| G1U A6C C13U A25C U28G | 0.01 |
| G1U C15A A24C A39G | 0.07 |
| G1U C13A G19C | 0.01 |
| G1U A6U C23G A25U G36A | 0.09 |
| G1U C10U G17C G40U A41U C46A | 0.02 |
| G1U A12U A24C C45A | 0.04 |
| G1U C8U A16G G19U C31A | 0.03 |
| G1U C18A G21A | 0.27 |
| G1U C3U G21C G30C | 1.63 |
| G1U A25U C37U C42A | 0.01 |
| G1U A6U A11C G19U G35A | 0.01 |
| G1U C3A C37G | 0.2 |
| G1U C23G C46A | 0.16 |
